Measured values as given in PubChem BioAssay AID1468 (National Center for Advancing Translational Sciences (NCATS), 2008).
Screen size: about 280,000 compounds; about 1,100 (0.39%) were called active. The shares of active, inactive and inconclusive entries below differ from those in the screen. The call rests on the fitted dose curve; in most records, active means well fitted inhibition curve with a large enough effect; inconclusive means small, poorly fitted or top-dose-only effect, or effect the other way; inactive means flat fitted curve, though single readings scatter. Potencies of inconclusive entries are left out as doubtful fits.
Further: nearly all actives have a fitted effect of over 55% in size.
On the % scale 0 is the no-effect control and ±100 the full control effect; potency means the concentration at half of the fitted maximal effect; tags describe the fitted curve by direction and shape.

The compounds below were run against Microtubule-associated protein tau (Homo sapiens) (UniProt P10636) (assay: qHTS for Inhibitors of Tau Fibril Formation, Fluorescence Polarization). Settings: K18 P301L tau heparin fibrillization, Alexa594 FP, 6 h; series mostly up to 57.7 µM; activity, negative = inhibition: at the top concentration.
Chain of UniProt P10636 (P10636 whole entry, looked up, the tested form may be a part): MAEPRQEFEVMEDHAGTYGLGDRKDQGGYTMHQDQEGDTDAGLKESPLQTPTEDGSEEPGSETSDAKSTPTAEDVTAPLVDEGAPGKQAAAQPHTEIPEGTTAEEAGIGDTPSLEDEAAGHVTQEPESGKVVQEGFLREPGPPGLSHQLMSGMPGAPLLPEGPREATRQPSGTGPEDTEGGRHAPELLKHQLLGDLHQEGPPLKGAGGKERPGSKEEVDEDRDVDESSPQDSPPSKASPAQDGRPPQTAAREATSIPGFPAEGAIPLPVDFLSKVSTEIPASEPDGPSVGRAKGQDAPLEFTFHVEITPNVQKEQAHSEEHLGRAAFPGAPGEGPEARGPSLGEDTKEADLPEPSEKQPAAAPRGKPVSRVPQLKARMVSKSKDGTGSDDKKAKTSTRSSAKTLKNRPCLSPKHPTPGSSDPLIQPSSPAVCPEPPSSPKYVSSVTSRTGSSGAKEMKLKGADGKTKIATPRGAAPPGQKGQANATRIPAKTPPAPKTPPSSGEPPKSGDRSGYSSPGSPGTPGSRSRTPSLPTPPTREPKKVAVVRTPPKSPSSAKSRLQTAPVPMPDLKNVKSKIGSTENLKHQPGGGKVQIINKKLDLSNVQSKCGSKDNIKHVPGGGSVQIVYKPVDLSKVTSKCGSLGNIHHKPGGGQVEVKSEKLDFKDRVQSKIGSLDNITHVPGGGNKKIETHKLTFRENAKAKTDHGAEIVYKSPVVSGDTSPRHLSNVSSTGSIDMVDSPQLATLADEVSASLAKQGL
Summary of the method: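 Human K18 P301L fragment (15 uM unlabeled plus 0.24 uM Alexa 594-labeled) in 100 mM sodium acetate pH 7 with compound, aggregation induced by 20 uM heparin for 6 hr at 37 C. ThT (30 uM) added for 1 hr, then Alexa 594 FP read.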
With `C#CCOCCOCCOCCNc1nc(N2CCN(C(=O)[C@H](Cc3cc4ccccc4[nH]3)n3cc([C@@H](N)CC(C)C)nn3)CC2)nc(N2CCN(C(=O)[C@H](Cc3cc4ccccc4[nH]3)n3cc([C@@H](N)CC(C)C)nn3)CC2)n1` the Potency was inconclusive [inhibitor, single point]. In the case of `O=C(N/N=C/c1cccc(O)c1)c1cc(-c2ccc3c(c2)OCO3)n[nH]1`, the Potency is reported as inconclusive [inhibitor, single point]. For `CCOc1ccc(-n2c(-c3ccccc3)c(C)n3c4c(=O)n(C)c(=O)n(C)c4nc23)cc1`, the “activity, negative = inhibition” value was inactive: -4.83%. With `O=C(Nc1ccc(O)cc1)/C(=C\c1ccncc1)NC(=O)c1ccccc1` the “activity, negative = inhibition” value was inactive: 9.72%. With `Cc1ccc(S(=O)(=O)N2CCOCC2)cc1C(=O)Nc1ccccc1C(=O)O` the “activity, negative = inhibition” value was inactive: 6.26%. For `Cc1ccc2onc(CC(=O)N(C)c3ccccc3)c2c1`, the “activity, negative = inhibition” value was inactive: 13.4%. For `O=S(=O)(Nc1ccc2nc(-c3cccc(Cl)c3)oc2c1)c1ccccc1`, the Potency was inconclusive [inhibitor, partial curve, poor fit]. For `Cc1cc(C)cc(Nc2nc3c([nH]2)c(=O)n(C)c(=O)n3C)c1`, the Potency was inconclusive [activator, partial curve]. `CN(CC(=O)Nc1ccc(Cl)c(C(F)(F)F)c1)C(=O)/C=C/c1ccco1` was tested, and the Potency was inconclusive [inhibitor, single point]. `O=C1NC(c2ccccn2)Nc2sc3c(c21)CCC3` (stereo not drawn) was tested, and the Potency was inconclusive [inhibitor, single point]. For `CCOC(=O)c1c(C)oc2c1c1c(c3ccccc32)OCN(Cc2cccnc2)C1`, the Potency was inconclusive [activator, single point]. In the case of `Cc1ccc2cc(C#N)c(N3CCN(C)CC3)nc2c1`, the “activity, negative = inhibition” value is reported as inactive: -5.69%. `COc1ccc2c(Cl)c(C(=O)NCC3CCCO3)sc2c1Cl` (stereo not drawn) was tested, and the Potency was inconclusive [inhibitor, single point]. For `Cc1onc(-c2ccc(F)cc2F)c1C(=O)Nc1cccc(C(F)(F)F)c1`, the Potency was inconclusive [inhibitor, partial curve, poor fit]. With `O=C(Nc1ccccc1)c1cccc(S(=O)(=O)Nc2cccc(F)c2)c1` the Potency was inconclusive [inhibitor, partial curve]. With `CC(C)NC(=O)CC1Nc2c3ccccc3nc(=S)n2C1=O` (stereo not drawn) the “activity, negative = inhibition” value was inactive: -8.24%. In the case of `COC(=O)C(CCCCNC(=O)OCc1ccccc1)NC(=O)CN` (stereo not drawn), the “activity, negative = inhibition” value is reported as inactive: -4.11%. In the case of `CCOC(=O)c1ccc(N2C(=O)c3n[nH]c(-c4cccs4)c3C2c2ccc(C(C)C)cc2)cc1` (stereo not drawn), the Potency is reported as inconclusive [inhibitor, partial curve].
